Reference: PubChem BioAssay AID504333 (National Center for Advancing Translational Sciences (NCATS), 2011)
Hit rate of the full screen: of about 360,000 compounds, about 16,000 (4.4%) were called active. Inconclusive results, whose numbers are uncertain, are shown with a selection of clear calls. Calls follow the shape of the dose curve; as a rule, active = well fitted inhibition curve with a large enough effect; inconclusive = small, poorly fitted or top-dose-only effect; inactive = no such curve, though single readings can be large or run the other way. Potencies of inconclusive entries are doubtful fits and often do not repeat.

Molecular target: Bromodomain adjacent to zinc finger domain protein 2B (Homo sapiens) (UniProt Q9UIF8)
Assay: qHTS Assay for Inhibitors of BAZ2B; also: nearly all actives have a fitted effect of over 60% in size
Conditions: AlphaScreen BAZ2B-H3K14Ac peptide displacement; activity change, negative = inhibition: at 114 µM (top of the series) unless noted
How it was run: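 BAZ2B 50 nM plus b-H3(5-23)K14Ac 50 nM, PBS pH 7.4/0.01% Tween-20, 30 min RT; compound added (max 110 uM), 30 min RT; streptavidin donor/Ni-chelate acceptor beads 10 ug/mL final, 20 min dark; AlphaScreen read.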
% is scaled to controls: 0 for no effect and ±100 for the full control effect; potency is read from the fitted curve at half-maximal effect; tags tell the direction and shape of the fitted curve.

UniProt Q9UIF8, sequence (Q9UIF8 whole entry, looked up, the tested form may be a part): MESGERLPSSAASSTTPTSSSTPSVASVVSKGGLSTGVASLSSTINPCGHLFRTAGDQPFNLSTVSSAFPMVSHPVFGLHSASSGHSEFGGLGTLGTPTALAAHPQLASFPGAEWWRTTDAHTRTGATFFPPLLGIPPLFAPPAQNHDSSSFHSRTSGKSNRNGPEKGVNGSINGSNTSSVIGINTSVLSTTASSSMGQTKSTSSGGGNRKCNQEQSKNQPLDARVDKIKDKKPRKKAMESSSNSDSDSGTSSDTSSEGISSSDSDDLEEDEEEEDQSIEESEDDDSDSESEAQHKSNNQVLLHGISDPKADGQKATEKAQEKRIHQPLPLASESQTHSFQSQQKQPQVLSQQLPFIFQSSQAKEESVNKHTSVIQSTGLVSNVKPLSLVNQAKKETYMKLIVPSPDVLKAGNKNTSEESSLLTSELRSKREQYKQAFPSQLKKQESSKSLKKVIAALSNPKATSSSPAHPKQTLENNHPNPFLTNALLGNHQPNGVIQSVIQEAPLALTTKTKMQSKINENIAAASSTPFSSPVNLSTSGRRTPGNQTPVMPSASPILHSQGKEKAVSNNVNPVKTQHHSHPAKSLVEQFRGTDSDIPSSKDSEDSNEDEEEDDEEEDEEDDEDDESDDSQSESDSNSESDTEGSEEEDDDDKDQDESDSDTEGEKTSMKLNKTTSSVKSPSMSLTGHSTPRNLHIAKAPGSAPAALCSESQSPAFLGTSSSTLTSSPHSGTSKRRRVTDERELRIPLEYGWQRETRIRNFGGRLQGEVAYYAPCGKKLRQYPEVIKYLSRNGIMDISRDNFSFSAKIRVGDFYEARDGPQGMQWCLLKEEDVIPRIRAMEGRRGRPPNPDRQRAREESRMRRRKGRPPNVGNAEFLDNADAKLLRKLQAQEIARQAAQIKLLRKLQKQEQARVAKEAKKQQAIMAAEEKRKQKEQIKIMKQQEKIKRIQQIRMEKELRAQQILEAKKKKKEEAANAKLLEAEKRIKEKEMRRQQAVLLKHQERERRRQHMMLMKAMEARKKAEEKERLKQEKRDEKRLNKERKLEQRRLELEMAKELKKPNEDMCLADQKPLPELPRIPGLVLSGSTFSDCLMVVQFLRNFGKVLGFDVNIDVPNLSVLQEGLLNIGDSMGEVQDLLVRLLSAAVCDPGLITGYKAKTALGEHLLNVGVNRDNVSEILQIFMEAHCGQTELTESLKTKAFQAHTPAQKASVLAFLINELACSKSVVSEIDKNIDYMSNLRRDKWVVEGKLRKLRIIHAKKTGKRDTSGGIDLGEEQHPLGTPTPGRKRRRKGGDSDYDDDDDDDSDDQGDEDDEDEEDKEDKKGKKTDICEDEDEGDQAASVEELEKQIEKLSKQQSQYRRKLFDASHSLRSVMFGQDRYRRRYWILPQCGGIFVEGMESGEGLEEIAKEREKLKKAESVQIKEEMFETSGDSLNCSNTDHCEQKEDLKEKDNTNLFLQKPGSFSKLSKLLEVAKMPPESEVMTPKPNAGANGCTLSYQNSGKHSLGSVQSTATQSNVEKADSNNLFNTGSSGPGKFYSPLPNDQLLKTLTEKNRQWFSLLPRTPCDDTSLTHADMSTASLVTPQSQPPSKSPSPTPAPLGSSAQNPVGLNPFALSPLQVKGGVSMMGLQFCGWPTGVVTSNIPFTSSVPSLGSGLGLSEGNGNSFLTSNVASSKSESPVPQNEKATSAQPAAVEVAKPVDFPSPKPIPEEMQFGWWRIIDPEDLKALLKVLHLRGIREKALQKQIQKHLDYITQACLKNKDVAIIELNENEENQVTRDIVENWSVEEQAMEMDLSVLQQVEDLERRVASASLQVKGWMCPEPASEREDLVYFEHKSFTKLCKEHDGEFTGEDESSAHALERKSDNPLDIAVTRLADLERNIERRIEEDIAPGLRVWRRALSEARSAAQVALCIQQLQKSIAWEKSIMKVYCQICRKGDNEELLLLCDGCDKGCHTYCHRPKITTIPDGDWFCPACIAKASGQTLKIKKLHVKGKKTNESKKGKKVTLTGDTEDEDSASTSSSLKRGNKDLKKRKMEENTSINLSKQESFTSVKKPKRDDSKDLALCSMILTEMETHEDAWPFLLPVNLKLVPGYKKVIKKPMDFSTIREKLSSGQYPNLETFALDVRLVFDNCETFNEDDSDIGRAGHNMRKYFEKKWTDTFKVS

Q: For `O=C(CSc1ccc2nnc(CCNS(=O)(=O)c3ccccc3)n2n1)Nc1ccccc1C(F)(F)F`, which “activity change, negative = inhibition” value is on record?
A: Its value is inactive: -17.9%.

Q: `CSc1cccc(N2CC(C(=O)N(CC(C)C)c3c(N)n(Cc4ccccc4)c(=O)[nH]c3=O)CC2=O)c1` (stereo not drawn) was tested. Which Potency did it give?
A: The Potency was inconclusive: 89.1 µM [inhibitor, single point].

Q: For `Cc1scc(C(=O)NCc2ccco2)c1-c1ccccc1`, which Potency is on record?
A: Its Potency is inconclusive: 35.5 µM [inhibitor, partial curve].

Q: Which Potency does the source give for `CCc1cccc(NC(=O)CN2c3ccccc3S(=O)(=O)c3ccccc32)c1` here?
A: The Potency was inconclusive: 89.1 µM [inhibitor, single point].

Q: With `COc1cccc(N=c2oc3cc(O)ccc3cc2C(=O)NCC2CCCO2)c1` (stereo not drawn) as the compound, how does the Potency read?
A: The Potency was active: 35.5 µM.

Q: How did the “activity change, negative = inhibition” value turn out when `CCc1ccc(CNC(=O)c2ccc3c(c2)nc2n3CCCCC2)cc1` was run?
A: Its value is inactive: -2.6%.

Q: With `O=C(O)/C=C/C(=O)NNc1ccc([N+](=O)[O-])cc1` as the compound, how does the Potency read?
A: The Potency was inconclusive: 79.4 µM [inhibitor, partial curve].

Q: With `COc1cccc(CNC(=O)CCNS(=O)(=O)c2ccc3c(c2)CCCC(=O)N3)c1` as the compound, how does the “activity change, negative = inhibition” value read?
A: The value was inactive: 11.6% [at 57.1 µM].

Q: `COc1ccc(CCN2C(=O)CN(C3CCCCCC3)C(=O)C2c2ccc(C)cc2)cc1OC` (stereo not drawn) was tested. Which “activity change, negative = inhibition” value did it give?
A: The value was inactive: -15.4%.

Q: `CCOc1ccc(N2C(=O)CC(N(CCc3ccc(OC)cc3)C(=O)c3cccc(F)c3)C2=O)cc1` (stereo not drawn) was tested. Which “activity change, negative = inhibition” value did it give?
A: The value was inactive: 7.25%.

Q: For `CCOc1ccccc1CN1CCc2nc(Nc3ccccc3)ncc2C1`, which Potency is on record?
A: Its Potency is inconclusive: 31.6 µM [inhibitor, full curve].

Q: `CN(CC(=O)Nc1ccc(N2CCOCC2)cc1)Cc1c(O)ccc2ccccc12` was tested. Which Potency did it give?
A: Its Potency is inconclusive: 50.1 µM [inhibitor, partial curve].

Q: `Cc1[nH]c2ccccc2c1/C=C(\C#N)C(=O)NC(C)c1ccccc1` (stereo not drawn) was tested. Which Potency did it give?
A: The Potency was inconclusive: 89.1 µM [inhibitor, single point].

Q: With `CCCN(CCO)Cc1ccc(F)c(Br)c1` as the compound, how does the Potency read?
A: The Potency was active: 79.4 µM.

Q: With `O=C(CSc1nc2ccccc2nc1Cc1ccccc1)N1CCCc2ccccc21` as the compound, how does the “activity change, negative = inhibition” value read?
A: Its value is inactive: 0.221%.

Q: Which Potency does the source give for `Cc1cccc(/C=C/C(=O)c2ccc([N+](=O)[O-])o2)c1` here?
A: Its Potency is inconclusive: 39.8 µM [inhibitor, partial curve].

Q: Which Potency does the source give for `CC1(C)OC(=O)C(=NNc2ccccc2[N+](=O)[O-])C(=O)O1` here?
A: The Potency was inconclusive: 70.8 µM [inhibitor, single point].

Q: With `Cn1nccc1C(=O)NC1CCN(Cc2ccccc2)CC1` as the compound, how does the “activity change, negative = inhibition” value read?
A: The value was inactive: -13.3%.

Q: For `Cc1c(C(=O)N2CCOCC2)sc(NC(=O)c2ccc([N+](=O)[O-])cc2)c1C#N`, which Potency is on record?
A: Its Potency is inconclusive: 25.1 µM [inhibitor, full curve, poor fit].

Q: For `CCOC(=O)c1c(Nc2cccc(C)c2)nnc(-c2ccccc2)c1-c1ccccc1`, which Potency is on record?
A: The Potency was inconclusive: 20 µM [inhibitor, full curve].

Q: How did the Potency turn out when `O=C(/C=C/c1ccnc2ccccc12)c1cccs1` was run?
A: The Potency was inconclusive: 70.8 µM [inhibitor, single point].

Q: How did the “activity change, negative = inhibition” value turn out when `CCc1cccc(NC(=O)COc2cc(=O)n(CC)c3ccccc23)c1` was run?
A: The value was inactive: -1.4%.

Q: How did the Potency turn out when `O/N=C/c1ccn(-c2ccc(Br)cc2)c1` was run?
A: The Potency was inconclusive: 79.4 µM [inhibitor, partial curve].

Q: `C/C=C/C=C/[C@H]1Cc2cc(O)cc(O)c2O1` was tested. Which Potency did it give?
A: The Potency was inconclusive: 70.8 µM [inhibitor, single point].

Q: For `Cc1nc(C(=O)NNC(=O)c2ccccc2Cl)c(C(F)(F)F)o1`, which Potency is on record?
A: Its Potency is inconclusive: 79.4 µM [inhibitor, partial curve].

Q: For `N#Cc1ccc(C(=O)N(Cc2ccccc2)c2ccccc2)cc1`, which “activity change, negative = inhibition” value is on record?
A: Its value is inactive: 15.5%.

Q: Which Potency does the source give for `COc1ccc(S(=O)(=O)NNC(=O)c2csc(-n3nc(C)cc3C(F)(F)F)n2)cc1OC` here?
A: The Potency was inconclusive: 89.1 µM [inhibitor, single point].

Q: For `Cc1nc(NCCc2ccccc2)c2oc3ccccc3c2n1`, which Potency is on record?
A: Its Potency is inconclusive: 89.1 µM [inhibitor, single point].

Q: How did the Potency turn out when `Cc1ccc2ncnc(Oc3ncccc3[N+](=O)[O-])c2c1` was run?
A: Its Potency is inconclusive: 70.8 µM [inhibitor, single point].

Q: Which Potency does the source give for `CN(CCOCCOc1ccc(F)cc1)Cc1ccccc1` here?
A: The Potency was active: 79.4 µM.

Q: `Cc1cc(C)cc(NC(=O)Cn2c(=O)n(CC(=O)NCCc3ccccc3)c(=O)c3ccccc32)c1` was tested. Which Potency did it give?
A: The Potency was inconclusive: 89.1 µM [inhibitor, single point].

Q: `Cc1cccc(Nc2cc(C)nc3ccccc23)c1` was tested. Which “activity change, negative = inhibition” value did it give?
A: The value was inactive: -6.42%.

Q: With `O=C(CNC(=O)[C@@H]1Cc2ccccc2CN1)Nc1ccc2c(c1)OCCO2` as the compound, how does the Potency read?
A: Its Potency is inconclusive: 79.4 µM [inhibitor, single point].

Q: `COCc1c(C(=O)N2CCN(Cc3nc4ccccc4s3)CC2)oc2ccccc12` was tested. Which Potency did it give?
A: The Potency was inconclusive: 89.1 µM [inhibitor, single point].

Q: With `COc1cccc(/C=N/n2c(-c3cccs3)n[nH]c2=S)c1` as the compound, how does the Potency read?
A: The Potency was inconclusive: 50.1 µM [inhibitor, partial curve].

Q: `COc1ccc(N2CCN(C(=O)CCc3ccccc3)CC2)cc1` was tested. Which “activity change, negative = inhibition” value did it give?
A: The value was inactive: -22%.

Q: For `Cc1cccc(C)c1NC(=O)Cn1cc(S(=O)(=O)Cc2ccc(F)cc2)c2ccccc21`, which Potency is on record?
A: Its Potency is inconclusive: 50.1 µM [inhibitor, partial curve].

Q: With `CCCCOC(=O)C1=C(C)Nc2ncnn2C1c1ccc(OC)c(OC)c1` (stereo not drawn) as the compound, how does the Potency read?
A: The Potency was inconclusive: 100 µM [inhibitor, single point].

Q: For `COc1ccc(CNC(=O)C2CCN(S(=O)(=O)c3ccc4c(c3)NC(=O)CO4)CC2)cc1`, which Potency is on record?
A: The Potency was inconclusive: 89.1 µM [inhibitor, single point].

Q: How did the “activity change, negative = inhibition” value turn out when `CCOC(=O)CSc1nc(C)cc(C)n1` was run?
A: Its value is inactive: 9.53%.

Q: With `CCOc1ccc(OC(=O)NC(c2ccccc2)C(Cl)(Cl)Cl)cc1` (stereo not drawn) as the compound, how does the Potency read?
A: Its Potency is inconclusive: 70.8 µM [inhibitor, single point].

Q: For `c1ccc(-c2c(-c3ccccc3)n(Cc3ccco3)c3ncnc(NCCCn4ccnc4)c23)cc1`, which Potency is on record?
A: Its Potency is active: 31.6 µM.

Q: How did the Potency turn out when `COc1ccc(NCC(=O)N/N=C/C=C/c2ccccc2[N+](=O)[O-])cc1` was run?
A: The Potency was active: 39.8 µM.

Q: For `CC(C)c1ccc(NC2CCCN(C(=O)c3cscn3)C2)cc1` (stereo not drawn), which “activity change, negative = inhibition” value is on record?
A: Its value is inactive: -27.5%.

Q: How did the “activity change, negative = inhibition” value turn out when `O=C(CSC(=S)N1CCOCC1)Nc1nccs1` was run?
A: Its value is inactive: -0.0385%.

Q: `CCOc1cccc(C(=O)Nc2cccc(NC(=O)c3ccco3)c2)c1` was tested. Which Potency did it give?
A: The Potency was inconclusive: 79.4 µM [inhibitor, single point].

Q: For `Cc1cc(S(=O)(=O)N2CCCC2)ccc1OCC(=O)NCc1ccco1`, which Potency is on record?
A: The Potency was inconclusive: 89.1 µM [inhibitor, single point].

Q: How did the Potency turn out when `O=P(O)(O)COc1ccccc1P(=O)(c1ccccc1)c1ccccc1` was run?
A: Its Potency is inconclusive: 89.1 µM [inhibitor, single point].

Q: How did the Potency turn out when `Cn1/c(=N/N=C/c2ccc(N3CCOCC3)cc2)sc2ccccc21` was run?
A: The Potency was inconclusive: 6.31 µM [inhibitor, full curve].

Q: How did the Potency turn out when `COc1cccc(OCC(O)CN2CCN(c3ccc(F)cc3)CC2)c1` (stereo not drawn) was run?
A: The Potency was inconclusive: 70.8 µM [inhibitor, single point].

Q: With `CCc1ccc(C(=O)C(C)OC(=O)c2nc3nc(C)cc(C)n3n2)cc1` (stereo not drawn) as the compound, how does the “activity change, negative = inhibition” value read?
A: The value was inactive: -3.54%.

Q: Which Potency does the source give for `Cc1ccc(NC(=O)CSC2=C(C#N)C(c3ccco3)C3=C(CC(C)(C)CC3=O)N2)cc1` (stereo not drawn) here?
A: The Potency was inconclusive: 79.4 µM [inhibitor, single point].

Q: Which “activity change, negative = inhibition” value does the source give for `Cn1nc(C(=O)NCc2ccccc2)c2ccccc2c1=O` here?
A: Its value is inactive: -29.2%.

Q: For `O=C(O)CCn1c(C(=O)O)cc2sccc21`, which Potency is on record?
A: Its Potency is inconclusive: 89.1 µM [inhibitor, single point].

Q: How did the “activity change, negative = inhibition” value turn out when `O=C1NC2(CCCCCC2)C(=O)N1Cc1ccccc1F` was run?
A: The value was inactive: -1.05%.

Q: How did the Potency turn out when `CCOC(=O)C1=C(c2ccccc2)NC(=O)NC1c1ccc(OCC#N)c(OC)c1` (stereo not drawn) was run?
A: Its Potency is inconclusive: 79.4 µM [inhibitor, single point].

Q: With `O=C(O)c1cccc(NC(=S)N/N=C/c2ccccc2OCc2cccc(Br)c2)c1` as the compound, how does the Potency read?
A: Its Potency is active: 44.7 µM.

Q: How did the “activity change, negative = inhibition” value turn out when `O=C(NCc1ccc(Cl)cc1)C1CCN(C(=O)c2ccc(Cl)cc2)CC1` was run?
A: The value was inactive: 11.7%.

Q: With `CN(C)c1ccc(/C=C2/C=C(c3ccc4c(c3)CCCC4)OC2=O)cc1` as the compound, how does the Potency read?
A: The Potency was inconclusive: 0.708 µM [inhibitor, full curve, poor fit].

Q: For `CCOC(=O)c1cc(C)n(Cc2ccc(OCC)c(OC)c2)c1C`, which Potency is on record?
A: Its Potency is inconclusive: 89.1 µM [inhibitor, single point].

Q: `Cc1cccc(NC(=O)Nc2cccc(C#N)c2)n1` was tested. Which “activity change, negative = inhibition” value did it give?
A: The value was inactive: -5%.

Q: `O=C1c2ccccc2C(=O)C1(CO)c1ccc(OC(F)F)cc1` was tested. Which Potency did it give?
A: The Potency was inconclusive: 50.1 µM [inhibitor, partial curve].

Q: With `COC(=O)CSc1nc(C2CC2)cc(C(F)(F)F)c1C#N` as the compound, how does the “activity change, negative = inhibition” value read?
A: The value was inactive: 91.6%.

Q: Which “activity change, negative = inhibition” value does the source give for `CC1=C(C(=O)Nc2cccc(C(F)(F)F)c2)C2(CCCCCC2)OC1=O` here?
A: The value was inactive: 4.24%.

Q: With `O=C(O)c1cc(=O)c2ccccc2[nH]1` as the compound, how does the Potency read?
A: Its Potency is inconclusive: 89.1 µM [inhibitor, single point].

Q: How did the Potency turn out when `CC(C)(C)c1ccc(NC(=O)COc2ccc(-n3ccnc3)cc2)cc1` was run?
A: The Potency was inconclusive: 44.7 µM [inhibitor, partial curve].

Q: With `Cc1ccc(S(=O)(=O)Oc2ccc(/C=N/N=C3/NC(=O)C(CC(=O)O)S3)cc2)cc1` (stereo not drawn) as the compound, how does the Potency read?
A: The Potency was inconclusive: 79.4 µM [inhibitor, partial curve].

Q: With `CC(=O)c1ccc(-c2cccc(-c3nc4ccccn4c3NC3CCCCC3)c2)cc1` as the compound, how does the Potency read?
A: Its Potency is active: 39.8 µM.

Q: How did the “activity change, negative = inhibition” value turn out when `COc1ccccc1NC(=O)Cn1c(=O)n(-c2cccc(Cl)c2)c(=O)c2sc3ccccc3c21` was run?
A: The value was inactive: -11.2%.

Q: Which Potency does the source give for `O=C(O)CN1C(=O)/C(=C\c2cccc(OCc3ccc(F)cc3)c2)SC1=S` here?
A: The Potency was inconclusive: 70.8 µM [inhibitor, single point].

Q: For `Cc1ccc(N2CC(O)=C(c3nc4ccccc4c(=O)[nH]3)C2=N)cc1C`, which Potency is on record?
A: The Potency was inconclusive: 79.4 µM [inhibitor, single point].

Q: Which “activity change, negative = inhibition” value does the source give for `COCc1ccc(CN2CCC(n3nccc3NC(=O)CCCc3ccccc3)CC2)o1` here?
A: The value was inactive: -17.3%.

Q: `CC1(C)CC(=O)c2sc(NS(=O)(=O)c3ccc(Cl)cc3)nc2C1` was tested. Which Potency did it give?
A: The Potency was inconclusive: 56.2 µM [inhibitor, partial curve].
